# Measured values published in PubChem BioAssay (NCATS).
# The shares of active, inactive and inconclusive entries below differ from those in the screen. For part of these data: Potencies of inconclusive entries are left out as doubtful fits. Active and inactive are the calls of the source. Unless noted, calls follow the shape of the dose curve; as a rule, active = well fitted curve in the direction sought with a large enough effect; inconclusive = small, poorly fitted or top-dose-only effect, or another doubt; inactive = no such curve, though single readings can be large; an effect the other way counts as inactive or inconclusive.
# How the values were obtained:
# [1] = qHTS Assay for Identification of Small Molecule Antagonists for NFkB Signaling Pathway (AID 895; active = well fitted inhibition curve with a large enough effect in the signal ratio, with a control signal flat, not every such curve was filed as active; inconclusive = small, poorly fitted or top-dose-only effect, or effect the other way, or a change in a side signal; the % refers to the signal ratio; also: % is scaled to controls: 0 for no effect and ±100 for the full control effect); conditions: NFkB beta-lactamase reporter cells, FRET ratio 460/530, stimulated with 10 pM TNF alpha; activity change, negative = inhibition: at 38.3 µM (top of the series)
# Procedure, shortened: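 NFkB-bla ME-180 cervical carcinoma cells with beta-lactamase reporter under NFkB response element; compounds added, then TNF alpha at 10 pM final (EC50), 5 h at 37 C. LiveBLAzer substrate 2 h, room temperature; emission 460/530 nm at 405 nm excitation.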
# [2] = biological target: RecQ-like DNA helicase BLM (Homo sapiens) (UniProt P54132); assay: qHTS Validation Assay for Inhibitors of Bloom's syndrome helicase (BLM) (AID 2364); also: potency is read from the fitted curve at half-maximal effect
# Procedure, shortened: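 BLM 50 nM in 25 mM Tris-HCl pH 8.0, 5 mM NaCl, 2 mM MgCl2, 1 mM DTT, 0.01% Tween-20, 2.5 ug/ml poly(dI-dC); 15 min cpd preinc, RT. Start: 200 nM forked DNA + 2 mM ATP (final). TAMRA read, 2 reads 2 h apart.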
# [3] = biological target: ATP-dependent 6-phosphofructokinase (Trypanosoma brucei brucei) (UniProt O15648); assay: qHTS Validation Assay to Find Inhibitors of T. brucei phosphofructokinase (AID 485368); also: potency is read from the fitted curve at half-maximal effect
# Procedure, shortened: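 Enzyme reaction in triethanolamine buffer pH 8.0 with 5 mM MgCl2, 0.01% Tween20 and 0.1% BSA; PFK 1.25 nM, F6P 0.5 mM, ATP 0.1 mM, 45 min RT. ADP quantified by ADP-Glo.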
# [4] = biological target: 3',5'-cyclic-AMP phosphodiesterase 4B (Homo sapiens) (UniProt Q07343); assay: qHTS Assay for Inhibitors of PDE-IV (AID 607; active = well fitted activation curve with a large enough effect in the main read-out, with a control signal flat, not every such curve was filed as active; inconclusive = small, poorly fitted or top-dose-only effect, or effect the other way, or a change in a side signal; also: potency is read from the fitted curve at half-maximal effect; as to activation (PDE inhibition): % of control where 0% means no effect); conditions: HEK293 ACTOne CNG channel cells, membrane potential fluorescence; activation (PDE inhibition): at 22.9 µM (top of the series)
# Procedure, shortened: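 The readout is membrane depolarisation from a cAMP-sensing CNG channel, detected with a potential dye at ex 535/em 590. Cells were HEK293-derived (endogenous PDE-IV) at 1000 cells/well, titrated up to 22.9 uM final.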
# [5] = qHTS of pediatric cancer cell lines to identify multiple opportunities for drug repurposing: Primary screen for Saos-2 cells (AID 1347097); also: nearly all actives have a fitted effect of over 40% in size; also: potency is read from the fitted curve at half-maximal effect
# Procedure, shortened: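 Readout: CellTiter-Glo luminescence, 48 h treatment. Controls DMSO (neutral) and bortezomib 2.3 µM final (positive). Potency and efficacy taken from primary-screen concentration-response curves.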
# [6] = qHTS Assay for Lipid Storage Modulators (AID 1519; calls by dose curve; also: % is scaled to controls: 0 for no effect and ±100 for the full control effect); conditions: Drosophila S3 cells, BODIPY lipid droplet/cell ratio, laser cytometry, cells loaded with oleic acid; activity change, negative = inhibition: at 57.5 µM (top of the series) unless noted
# Procedure, shortened: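 Cells seeded at 5,000 per well were treated with compounds over a concentration series and loaded with oleic acid (400 uM, as added). Lipid droplet fluorescence (488 nm excitation, 500-530 nm channel) was read by laser-scanning cytometry and normalized to 20 uM Triacsin C.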
# [7] = qHTS of pediatric cancer cell lines to identify multiple opportunities for drug repurposing: Primary screen for BT-12 cells (AID 1347101);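 also: plate controls were DMSO for no effect and bortezomib positive control for full effect; nearly all actives have a fitted effect of over 25% in size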
# Procedure, shortened: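 Cells (500-1,000/well) rested 5 h, then received compounds for 48 h; metabolically active cells were measured by CellTiter-Glo luminescence. Final concentrations spanned up to 46 µM (MIPE, 11-point) or 0.59 nM-46 µM (NPC, 8-point) in primary screens, 11-point in follow-ups.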
# [8] = tested on: Zika virus NS2B-NS3 protease; assay: Primary screen GU AMC qHTS for Zika virus inhibitors (AID 1347154); also: potency is read from the fitted curve at half-maximal effect; nearly all actives have a fitted effect of over 70% in size
# Procedure, shortened: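 Unlinked Zika NS2B hydrophilic domain/NS3 protease domain noncovalent complex (25 nM final) in 10 mM Tris-HCl pH 8.0, 0.01% Tween 20, with AMC peptide substrate. Fluorescence (ex 340, em 450 nm) change over 15 min, room temperature; percent inhibition fitted to 4-parameter Hill equation.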
# [9] = Primary qHTS for small molecule stabilizers of the endoplasmic reticulum resident proteome: Secreted ER Calcium Modulated Protein (SERCaMP) assay (AID 1508630); conditions: SH-SY5Y GLuc-SERCaMP (Gaussia luciferase released on ER calcium loss) secretion, thapsigargin, luminescence; activity change, negative = inhibition: at 38.4 µM (top of the series) unless noted; also: potency is read from the fitted curve at half-maximal effect
# Procedure, shortened: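 GLuc-SERCaMP-expressing SH-SY5Y cells, pretreated 16 h with compound, are challenged with thapsigargin to empty ER calcium stores; after 4 h, coelenterazine is added directly to the medium and luminescence is imaged.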
# [10] = biological target: Furin (Homo sapiens) (UniProt P09958); assay: Furin counterscreen qHTS for Zika virus inhibitors (AID 1347149); conditions: furin enzymatic counterscreen, fluorogenic substrate; activity change, negative = inhibition: at 114 µM (top of the series); also: nearly all actives have a fitted effect of over 70% in size; also: potency is read from the fitted curve at half-maximal effect;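 as to activity change, negative = inhibition: purified recombinant full-length human furin enzyme at 5 nM; fluorescence gain from furin cutting a BOC-RVRR-AMC peptide substrate over 15 min; top concentration of the series differs between compounds; plate controls were no-inhibitor control for no effect and no-enzyme control for full effect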
# Procedure, shortened: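 Fluorogenic cleavage of BOC-RVRR-AMC (2 microM final, Km ~15 µM) was monitored (ex 340, em 450 nm) at 37C after 15 min RT preincubation of 5 nM furin with compounds in HEPES pH 7.0 buffer with CaCl2 and Triton X-100. Percent inhibition was fitted to a 4-parameter Hill curve.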
# [11] = tested on: Zika virus NS2B-NS3 protease (linked construct); assay: Confirmatory screen NINDS AMC qHTS for Zika virus inhibitors (AID 1347152);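 also: AMC fluorescence gain from cleaved Bz-Nle-KRR-AMC substrate over 15 min; top concentration of the series differs between compounds; 0% = no-inhibitor control and -100% = no-enzyme control; nearly all actives have a fitted effect of over 70% in size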
# Procedure, shortened: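 Concentration-response confirmation used the NINDS linked protease (NS2B hydrophilic domain joined to NS3 protease domain), 1 nM, with a 15-min compound preincubation. Substrate, Nle-KRR-AMC at 10 microM, was read by UV fluorescence before and after 15 min.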
# [12] = tested on: Zika virus NS2B-NS3 protease (linked); assay: 384 well plate NINDS AMC confirmatory qHTS for Zika virus inhibitors (AID 1347163); also: potency is read from the fitted curve at half-maximal effect; nearly all actives have a fitted effect of over 50% in size
# Procedure, shortened: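 Linked protease 5/30/60 nM final; cpds up to 1 mM final, ~15 min preinc. Substrate Ac-VKTGKR-AMC 30 microM final. RT, dark, 25 min; FI ex 355/em 460; normalized to no-enzyme/no-inhibitor ctrls.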
# [13] = tested on: Zika virus NS2B-NS3 protease (linked construct); assay: 384 well plate NINDS Rhodamine confirmatory qHTS for Zika virus inhibitors (AID 1347164); also: potency is read from the fitted curve at half-maximal effect; nearly all actives have a fitted effect of over 65% in size
# Procedure, shortened: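 Cleavage of Ac-LKRR-Rhodamine 110 (10 microM final) by linked protease (final 5, 30 or 60 nM) was followed as fluorescence at 485/538 nm after 25 min, room temperature, dark. Compounds preincubated ~15 min.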
# [14] = Tertiary RLuc qRT-PCR qHTS assay for Zika virus inhibitors (AID 1347169); also: top concentration of the series differs between compounds; % is scaled to controls: 0 for no effect and ±100 for the full control effect; nearly all actives have a fitted effect of over 55% in size
# Procedure, shortened: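 Inhibition of ZIKV-RLuc replication in Vero cells, read as Renilla luminescence 1-1.5 hrs after live-cell substrate addition, following 48-72 hrs infection at MOI 1-2 in presence of compound.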
# [15] = ZIKV-mCherry secondary qHTS for Zika virus inhibitors (AID 1347158); conditions: Vero cells, ZIKV-mCherry infection imaging, 48-72 h; activity change, negative = inhibition: at 49.2 µM (top of the series); also: top concentration of the series differs between compounds
# Procedure, shortened: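 Vero cells, 5,000/well, plated overnight at 37 °C, then compound added and infected with recombinant ZIKV-mCherry at MOI 1 for 48-72 h. PFA-fixed, Hoechst nuclear stain, high-content imaging; cells with mCherry intensity above 450 RFU scored infected, reported as percent infection.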
# Tags tell the direction and shape of the fitted curve.
# Sequence of UniProt P09958 (P09958 whole entry, looked up): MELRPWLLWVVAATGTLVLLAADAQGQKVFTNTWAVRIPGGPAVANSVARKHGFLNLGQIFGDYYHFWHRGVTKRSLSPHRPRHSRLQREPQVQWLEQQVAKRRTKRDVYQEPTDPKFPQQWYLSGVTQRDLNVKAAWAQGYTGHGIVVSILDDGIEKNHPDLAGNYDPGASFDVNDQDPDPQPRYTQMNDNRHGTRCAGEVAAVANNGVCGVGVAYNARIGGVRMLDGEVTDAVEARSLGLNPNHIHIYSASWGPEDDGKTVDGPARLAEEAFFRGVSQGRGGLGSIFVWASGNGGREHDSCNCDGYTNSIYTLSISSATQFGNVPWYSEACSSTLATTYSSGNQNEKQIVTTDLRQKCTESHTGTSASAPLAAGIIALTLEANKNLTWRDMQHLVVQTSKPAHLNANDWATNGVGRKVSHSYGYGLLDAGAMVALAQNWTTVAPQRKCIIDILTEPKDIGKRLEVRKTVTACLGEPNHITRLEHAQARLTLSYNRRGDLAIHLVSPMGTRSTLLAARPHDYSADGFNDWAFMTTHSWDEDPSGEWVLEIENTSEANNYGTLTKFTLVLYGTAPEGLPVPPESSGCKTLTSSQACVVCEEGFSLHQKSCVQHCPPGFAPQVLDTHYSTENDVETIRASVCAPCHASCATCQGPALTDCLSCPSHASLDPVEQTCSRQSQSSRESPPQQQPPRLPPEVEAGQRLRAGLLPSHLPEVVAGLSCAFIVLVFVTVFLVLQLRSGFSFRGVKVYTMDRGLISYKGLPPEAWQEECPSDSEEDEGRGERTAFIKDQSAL
# Sequence of UniProt P54132 (P54132 whole entry, looked up): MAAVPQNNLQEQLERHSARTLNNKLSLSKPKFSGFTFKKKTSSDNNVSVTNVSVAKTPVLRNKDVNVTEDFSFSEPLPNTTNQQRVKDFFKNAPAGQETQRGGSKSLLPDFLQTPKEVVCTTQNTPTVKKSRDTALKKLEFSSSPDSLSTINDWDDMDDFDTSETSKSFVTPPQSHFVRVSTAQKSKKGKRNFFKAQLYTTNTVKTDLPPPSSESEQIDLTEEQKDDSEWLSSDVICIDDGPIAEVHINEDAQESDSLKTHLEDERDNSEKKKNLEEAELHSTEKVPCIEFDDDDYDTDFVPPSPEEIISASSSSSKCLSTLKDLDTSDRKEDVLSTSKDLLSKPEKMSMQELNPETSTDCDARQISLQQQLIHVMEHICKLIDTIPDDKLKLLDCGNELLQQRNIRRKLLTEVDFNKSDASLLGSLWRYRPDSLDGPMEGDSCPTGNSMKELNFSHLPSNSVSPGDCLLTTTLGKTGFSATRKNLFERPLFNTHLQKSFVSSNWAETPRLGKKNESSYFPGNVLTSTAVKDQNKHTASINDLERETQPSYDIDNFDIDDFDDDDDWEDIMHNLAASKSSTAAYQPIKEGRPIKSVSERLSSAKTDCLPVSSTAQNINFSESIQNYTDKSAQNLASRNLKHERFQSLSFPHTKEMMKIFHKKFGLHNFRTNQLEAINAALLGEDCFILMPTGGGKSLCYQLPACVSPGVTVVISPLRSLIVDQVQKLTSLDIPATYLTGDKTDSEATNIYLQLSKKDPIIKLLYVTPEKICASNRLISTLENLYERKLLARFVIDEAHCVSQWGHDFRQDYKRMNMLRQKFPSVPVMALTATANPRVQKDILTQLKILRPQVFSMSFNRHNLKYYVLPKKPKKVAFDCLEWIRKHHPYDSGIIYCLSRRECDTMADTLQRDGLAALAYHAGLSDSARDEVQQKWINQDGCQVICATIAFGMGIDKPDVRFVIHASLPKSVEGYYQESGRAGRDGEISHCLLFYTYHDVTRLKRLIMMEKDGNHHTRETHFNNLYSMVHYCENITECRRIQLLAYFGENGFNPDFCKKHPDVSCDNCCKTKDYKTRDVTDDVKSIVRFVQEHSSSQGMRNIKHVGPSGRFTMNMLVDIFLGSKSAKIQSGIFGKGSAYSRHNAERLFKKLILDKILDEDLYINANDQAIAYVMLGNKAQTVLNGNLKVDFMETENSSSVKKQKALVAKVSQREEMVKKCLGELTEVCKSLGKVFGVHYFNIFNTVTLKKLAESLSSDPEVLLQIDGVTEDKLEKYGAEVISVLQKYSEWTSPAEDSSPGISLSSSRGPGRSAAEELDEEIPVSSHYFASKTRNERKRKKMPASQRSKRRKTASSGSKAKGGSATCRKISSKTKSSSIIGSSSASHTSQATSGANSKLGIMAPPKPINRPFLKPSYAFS
# Sequence of UniProt O15648 (O15648 whole entry, looked up): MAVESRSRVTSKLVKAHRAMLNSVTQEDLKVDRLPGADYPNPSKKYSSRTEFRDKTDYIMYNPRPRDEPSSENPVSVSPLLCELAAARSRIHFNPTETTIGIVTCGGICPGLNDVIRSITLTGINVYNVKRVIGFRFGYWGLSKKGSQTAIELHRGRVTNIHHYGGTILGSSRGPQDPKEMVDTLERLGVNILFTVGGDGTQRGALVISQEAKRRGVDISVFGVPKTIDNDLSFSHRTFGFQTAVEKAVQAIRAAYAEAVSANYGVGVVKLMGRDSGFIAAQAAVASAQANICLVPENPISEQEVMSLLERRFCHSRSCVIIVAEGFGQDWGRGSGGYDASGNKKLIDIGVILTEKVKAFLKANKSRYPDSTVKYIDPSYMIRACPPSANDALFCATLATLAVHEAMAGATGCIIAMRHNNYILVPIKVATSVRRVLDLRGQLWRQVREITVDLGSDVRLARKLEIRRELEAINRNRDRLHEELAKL
# Sequence of UniProt Q07343 (Q07343 whole entry, looked up): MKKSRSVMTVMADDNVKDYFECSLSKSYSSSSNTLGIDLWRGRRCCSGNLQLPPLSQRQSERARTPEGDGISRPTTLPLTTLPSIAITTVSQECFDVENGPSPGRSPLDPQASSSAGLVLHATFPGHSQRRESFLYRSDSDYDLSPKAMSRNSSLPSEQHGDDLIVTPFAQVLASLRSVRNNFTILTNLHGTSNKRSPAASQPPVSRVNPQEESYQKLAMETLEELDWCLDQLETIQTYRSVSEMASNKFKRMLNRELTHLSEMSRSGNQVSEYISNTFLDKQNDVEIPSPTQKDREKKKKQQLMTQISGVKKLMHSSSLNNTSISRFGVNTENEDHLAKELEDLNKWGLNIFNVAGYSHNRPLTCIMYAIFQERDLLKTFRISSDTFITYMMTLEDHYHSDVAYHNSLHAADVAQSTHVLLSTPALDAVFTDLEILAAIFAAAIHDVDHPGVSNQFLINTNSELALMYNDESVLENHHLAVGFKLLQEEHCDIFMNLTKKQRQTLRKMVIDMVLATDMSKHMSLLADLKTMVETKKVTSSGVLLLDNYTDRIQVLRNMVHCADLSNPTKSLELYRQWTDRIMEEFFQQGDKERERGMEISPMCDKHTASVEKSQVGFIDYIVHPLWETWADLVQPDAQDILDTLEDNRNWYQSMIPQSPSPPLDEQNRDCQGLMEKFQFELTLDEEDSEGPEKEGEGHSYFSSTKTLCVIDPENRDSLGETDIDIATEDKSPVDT
smiles,measurement,setting,value
C[N+](C)(C)CC=O,Potency,[1],inactive
same,Potency,[2],"inconclusive [inhibitor, full curve, poor fit]"
same,Potency,[3],"inconclusive [activator, single point]"
CN1[C@H]2CC(OC(=O)[C@@H](CO)c3ccccc3)C[C@H]1[C@H]1O[C@H]12 (stereo not given in full),Potency,[4],inactive
CCN(CC)CC(=O)Nc1c(C)cccc1C(=O)OC,Potency,[5],"inconclusive [cytotoxic, single point]"
O=C(O)c1cccnc1C(=O)O,Potency,[4],"inconclusive [inhibitor, single point]"
same,Potency,[1],inactive
same,"activity change, negative = inhibition",[6],inconclusive: 4.22%
same,Potency,[2],"inconclusive [inhibitor, partial curve, poor fit]"
same,Potency,[3],inactive
C[C@@H]1[C@H](O)[C@@H](C)C=CC=CC=CC=CC=CC=CC=C[C@H](O[C@@H]2O[C@H](C)[C@H](O)[C@H](N)[C@@H]2O)C[C@@H]2O[C@](O)(C[C@@H](O)C[C@@H](O)[C@H](O)CC[C@@H](O)C[C@@H](O)CC(=O)O[C@H]1C)C[C@H](O)[C@@H]2C(=O)O,Potency,[5],inactive
same,Potency,[7],inactive
same,Potency,[8],"inconclusive [inhibitor, single point]"
CCOC(N)=O,Potency,[7],inactive
same,Potency,[9],"inconclusive [inhibitor, partial curve, poor fit]"
CN(C)CCOC(C)(c1ccccc1)c1ccccn1 (stereo not given),"activity change, negative = inhibition",[6],inconclusive: 9.39%
same,Potency,[2],"inconclusive [inhibitor, full curve]"
same,Potency,[7],inactive
same,Potency,[9],"inconclusive [inhibitor, partial curve, poor fit]"
COC(=O)c1ccc(NC(=O)CSc2ccc(-c3sc(-c4ccccc4)nc3C)nn2)cc1,Potency,[10],active: 46.9 µM
C[C@@H](NC(=O)c1ccc(Cl)cc1)c1c(-c2ccc(F)cc2)noc1C(=O)O,Potency,[10],inactive
same,Potency,[11],inactive
same,Potency,[12],"inconclusive [inhibitor, partial curve, poor fit]"
same,Potency,[13],"inconclusive [inhibitor, partial curve, poor fit]"
same,Potency,[14],inactive
O=C(O)c1cccc(-c2cc(C(F)(F)F)ccc2Cl)c1,Potency,[10],inactive
same,Potency,[11],inactive
same,Potency,[15],inactive
same,Potency,[12],"inconclusive [inhibitor, partial curve, poor fit]"
same,Potency,[13],"inconclusive [inhibitor, partial curve, poor fit]"
